Experimental data as given in PubChem BioAssay AID1434 (Sanford-Burnham Center for Chemical Genomics, 2008).
This is one part of the list. Shown are side measurements of this screen, not its main read-out; they come without a call. Most of these compounds were active or inconclusive in the main read-out, so they are no random draw.

Biological target: Runt-related transcription factor 1 (Homo sapiens) + Core-binding factor subunit beta (Homo sapiens) (UniProt Q01196+Q13951)
Assay: disruptors of Runt domain/CBFb-SMMHC interaction – biochemical, FRET, Cerulean-Runt, Venus-CBFb-SMMHC, uHTS, primary screen (AID 1434);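 also: 0% = DMSO wells and 100% = wells with excess untagged CBFb-SMMHC; inhibitors lower the FRET ratio by blocking Runt binding to CBFb-SMMHC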
Conditions: Cerulean-Runt/Venus-CBFb-SMMHC FRET ratio 530/480, 1 h; retest duplicate average; at 20 µM; stronger effect = higher value

Sequence of UniProt Q01196 (Q01196 whole entry, looked up, the tested form may be a part): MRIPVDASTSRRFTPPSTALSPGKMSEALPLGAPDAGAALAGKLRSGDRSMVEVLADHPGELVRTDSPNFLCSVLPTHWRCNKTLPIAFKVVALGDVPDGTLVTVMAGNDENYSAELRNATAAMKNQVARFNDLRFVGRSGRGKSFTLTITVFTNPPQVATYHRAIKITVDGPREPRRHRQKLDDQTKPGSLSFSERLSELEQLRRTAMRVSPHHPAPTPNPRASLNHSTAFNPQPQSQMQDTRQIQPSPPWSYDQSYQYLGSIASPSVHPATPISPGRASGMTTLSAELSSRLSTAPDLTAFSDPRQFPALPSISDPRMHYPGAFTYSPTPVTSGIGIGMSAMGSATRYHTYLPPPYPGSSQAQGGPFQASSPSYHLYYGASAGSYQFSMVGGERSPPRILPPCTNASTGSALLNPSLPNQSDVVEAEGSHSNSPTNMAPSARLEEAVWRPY
Sequence of UniProt Q01196 (Q13951 whole entry, looked up, the tested form may be a part): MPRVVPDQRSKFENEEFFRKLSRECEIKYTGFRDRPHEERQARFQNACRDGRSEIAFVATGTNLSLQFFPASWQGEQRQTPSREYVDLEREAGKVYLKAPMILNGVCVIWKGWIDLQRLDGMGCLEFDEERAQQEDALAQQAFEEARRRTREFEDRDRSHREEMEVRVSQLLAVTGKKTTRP

Row | SMILES | inhibition [%]
1 | Nc1cccc2c1C(=O)N(C(=O)/C=C/c1cccc(Br)c1)C2=O | 64
2 | CN1CCc2c(sc(N)c2C(=O)O)C1 | 146
3 | Cc1cc(-c2nc3cccnc3s2)ccc1NS(=O)(=O)c1cccs1 | 166
4 | CC(=O)N=c1c(C#N)cc2c(=O)n3ccccc3nc2n1CCCOC(C)C | 70.6
5 | CCN(CC)c1cc(C)c(C#N)c2nc3ccccc3n12 | 101
6 | Cc1ccc2c3c(cccc13)-c1ccccc1C2=O | 71.5
7 | CCN(CC)c1ccc2ccc(=O)oc2c1 | 70.6
8 | Cc1cccc(NC(=O)CSc2cc(C)c(C#N)c3nc4ccccc4n23)c1 | 70.6
9 | CCN(CC)c1ccc2cc(C=O)c(=O)oc2c1 | 72.9
10 | Cc1cccc2cc(C#N)c(NCCNS(=O)(=O)c3ccc4c(c3)OCCO4)nc12 | 91.2
11 | O=c1[nH]c2ccccc2nc1-c1cccs1 | 186
12 | CC1=CC(c2ccc(Cl)cc2)n2nc(NS(=O)(=O)c3ccc(C)cc3)nc2N1 (configuration not stated) | 75.8
13 | CCC(C)n1c(=N)c(C#N)cc2c(=O)n3ccccc3nc21 (configuration not stated) | 71.5
14 | Cc1ccc2sc3ccc(NC(=O)c4ccccc4Cl)cc3c(=O)c2c1 | 57.6
15 | O=c1oc2cc(O)ccc2cc1-c1nc2c(s1)CCc1ccccc1-2 | 71.5
16 | Cc1ccc(Oc2nc3ccccn3c(=O)c2/C=C(\C#N)C(=O)NC2CCS(=O)(=O)C2)cc1 (configuration not stated) | 114
17 | N#C/C(=C\c1ccc(O)c(Br)c1)C(=O)NCc1ccccc1 | 180
18 | COc1ccccc1C(=O)c1cc2ccc(O)cc2oc1=O | 172
19 | Cc1c(Cc2ccccc2)c(=O)oc2cc(O)ccc12 | 143
20 | CCNC(=O)C1=C(O)c2sccc2N(C)S1(=O)=O | 74.7
21 | CCc1c(C)c(C#N)c2nc3ccccc3n2c1Nc1c(C)n(C)n(-c2ccccc2)c1=O | 99
22 | COc1ccc2cc(C(C)=O)c(=O)oc2c1 | 61.9

Row | SMILES | inhibition [%]
23 | CC(=O)N(c1ccc2oc(=O)sc2c1)S(=O)(=O)c1cccs1 | 56.7
24 | Cc1ccccc1S(=O)(=O)c1cc(C#N)c(=O)[nH]c1N | 173
25 | CCCCOC(=O)C(C#N)c1nc2ccccc2nc1N1CCN(Cc2ccc3c(c2)OCO3)CC1 (configuration not stated) | 82.5
26 | O=C(O)c1ccc(N/N=C/c2ccc(-c3ccc(Cl)cc3Cl)o2)cc1 | 70.7
27 | N#Cc1c(NC(=O)CSc2ncc(-c3ccccc3)n2CC2CCCO2)sc2c1CCCC2 (configuration not stated) | 86.1
28 | CC(C)n1c(=NC(=O)c2ccco2)c(C#N)cc2c(=O)n3ccccc3cc21 | 71.5
29 | O=C(O)C(=O)/C(=C\c1ccc(Cl)cc1)c1ccc2ccccc2n1 | 125
30 | COc1ccc(N/C=C2/Sc3ccccc3NC2=O)cc1 | 51.4
31 | CCC(=O)NC1=C(Cl)C(=O)C(NC(=O)CC)=C(Cl)C1=O | 68.3
32 | O=c1oc2c(CN3CCN(CCO)CC3)c(O)ccc2cc1-c1ccccn1 | 70.6
33 | CCS(=O)(=O)Nc1ccc(-c2nc3cccnc3s2)cc1 | 92.1
34 | CCCc1cc(=O)oc2c(CN3CCN(C)CC3)c(O)c(Cl)cc12 | 182
35 | COc1ccc(N=Cc2cc3c(cc2O)OC(N)=C(C#N)C3c2ccccc2)cc1 (configuration not stated) | 52.8
36 | Cc1nc(Cl)c2c(n1)NC1=C(O2)C(=O)CCC1 | 71.5
37 | COc1ccc(C2C=C(c3ccccc3)Nc3ncnn32)cc1 (configuration not stated) | 71.5
38 | Cc1c(C)c2cc(Cl)c(O)c(CN3CCCC(C)C3)c2oc1=O (configuration not stated) | 142
39 | COc1ccccc1N1C(=O)C=C(Sc2nc(C)cc(C)n2)C1=O | 60.2
40 | CCc1nnc(NC(=O)c2sc3nc4c(cc3c2N)CCCCCC4)s1 | 61.7
41 | CC(=O)c1c(N2CCN(Cc3ccccc3)CC2)nc(=S)n(-c2ccccc2)c1C | 98.7
42 | C/C(=N/NC(N)=S)c1cc2ccc(O)cc2oc1=O | 70.6
43 | C=CCOc1ccc(C2C(C#N)=C(N)N(Nc3ccccc3)C3=C2C(=O)CC(C)(C)C3)cc1OC (configuration not stated) | 133
44 | COc1ccc(OC)c(C2C3CN(C(C)C)CC=C3C(C#N)=C(N)C2(C#N)C#N)c1 (configuration not stated) | 80.4

Row | SMILES | inhibition [%]
45 | O=C1NC(c2ccco2)Nc2sc3c(c21)CCN(Cc1ccccc1)C3 (configuration not stated) | 72.9
46 | N=c1c(C(=O)NCc2ccc(F)cc2)cc2c(=O)n3ccccc3nc2n1CC1CCCO1 (configuration not stated) | 72.9
47 | N#Cc1c(N)n(-c2cccc(C(=O)O)c2)c2nc3ccccc3nc12 | 70.6
48 | COC(=O)c1c(N)n(CCCN2CCOCC2)c2nc3ccccc3nc12 | 109
49 | Cc1ccc2nc3c(cc2c1)c(NC(=O)C1CCCO1)nn3CC(C)C (configuration not stated) | 69.7
50 | CCNC(=O)/C(C#N)=C/c1c(N2CCN(Cc3ccc4c(c3)OCO4)CC2)nc2c(C)cccn2c1=O | 103
51 | Cc1cc(C)c2c(N)c3cccc(C)c3nc2n1 | 71.5
52 | O=c1nc2n(Cc3ccccc3)c3ccccc3cc-2c(=O)[nH]1 | 71.5
53 | COC(=O)C1=CN(CC2CCCO2)C=C(C(=O)OC)C1c1cccc(O)c1 (configuration not stated) | 125
54 | O=Cc1ccc(O)c2ncccc12 | 70.8
55 | O=C(c1cccnc1)N(c1cc2sc(=O)oc2c2ccccc12)S(=O)(=O)c1ccccc1 | 42
56 | COC(=O)c1c(C#N)c(N)nc2c1CCC2 | 132
57 | Cc1cccn2c(=O)c(/C=C(\C#N)C(=O)NCc3ccco3)c(N3CCC(C(N)=O)CC3)nc12 | 71.7
58 | CCOCCCn1c(=NC(=O)c2cccs2)c(C#N)cc2c(=O)n3cccc(C)c3nc21 | 70.6
59 | CCC(C)n1c(=N)c(C#N)cc2c(=O)n3cccc(C)c3nc21 (configuration not stated) | 70.6
60 | N=c1c(S(=O)(=O)c2ccccc2)cc2c(=O)n3ccccc3nc2n1CC1CCCO1 (configuration not stated) | 72.9
61 | CCOCCCn1c(=NC(C)=O)c(C#N)cc2c(=O)n3ccccc3nc21 | 70.6
62 | O=C(CC1Sc2ccccc2NC1=O)OCc1cc(=O)oc2cc(O)ccc12 (configuration not stated) | 101
63 | O=c1[nH]c(=O)c2ncc(-c3ccc(Cl)cc3)nc2[nH]1 | 85.1
64 | CCCCc1cc(=O)oc2c(CN3CCCC3)c(O)ccc12 | 96.8
65 | Cc1cc2c(c(=O)n1CCc1ccccc1)C(c1ccco1)C(C#N)=C(N)O2 (configuration not stated) | 89.1
66 | N=c1oc2c3c4c(cc2cc1C(=O)Nc1ccccc1)CCCN4CCC3 | 72.9

Row | SMILES | inhibition [%]
67 | CCCCNc1nc2sc3c(c2c(=O)n1-c1cccc(Cl)c1)CCN(C)C3 | 162
68 | CCCCN(C)C1=CC2=CC(=C(C#N)C#N)CCC2CC1 (configuration not stated) | 71.5
69 | COc1cccc(-c2c3c([nH]c(=O)c2C#N)CCc2cc(OC)ccc2-3)c1 | 70.6
70 | C=CCn1c(-c2cccs2)nc2nc3ccccc3nc21 | 136
71 | O=C(Nc1nc2c(s1)CN(Cc1ccccc1)CC2)C1CCCC1 | 145
72 | Cc1cccn2c(=O)c3cc(C(=O)NCc4cccnc4)c(=N)n(C(C)C)c3nc12 | 71.5
73 | Cc1cc(=O)oc2c(CN3CCCCC3)c(O)c(Cl)cc12 | 133
74 | N#C/C(=C\c1c(N2CCOCC2)nc2ccccn2c1=O)C(=O)NC1CCS(=O)(=O)C1 (configuration not stated) | 70.6
75 | CCC(=O)NC(Nc1sc2c(c1C(=O)OC)CCN(C)C2)(C(F)(F)F)C(F)(F)F | 53.3
76 | CCN1CCN(Cc2c(O)ccc3c2O/C(=C\c2ccccc2)C3=O)CC1 | 67.8
77 | CCOC(=O)c1c(NC(=S)Nc2ccccc2)sc2c1CCN(CC)C2 | 135
78 | N=c1c(C(=O)NC2CCCC2)cc2c(=O)n3ccccc3nc2n1CCN1CCOCC1 | 150
79 | CCOC(=O)c1sc(Nc2nc3c(OC)cccc3s2)nc1C | 144
80 | CCCn1c(=N)c(C#N)cc2c(=O)n3ccccc3nc21 | 71.5
81 | CC(=O)Nc1ccc(C2=NN(c3ccccc3)C(c3cccs3)C2)cc1 (configuration not stated) | 60.7
82 | Cc1cccn2c(=O)c(/C=C(\C#N)C(N)=O)c(Oc3ccccc3)nc12 | 159
83 | CCc1c(C)c2cc(Cl)c(O)c(CN3CCCCC3)c2oc1=O | 163
84 | CCOCCCn1c(=NC(C)=O)c(C(=O)OCC)cc2c(=O)n3ccccc3nc21 | 71.5
85 | CCCCn1c(-c2ccc(Cl)cc2)nc2c(=O)n(C)c(=O)[nH]c21 | 63.9
86 | Cc1ccc(CNC(=O)NCc2ccccc2)cc1 | -5
87 | CN(C)Cc1cc(O)c(CN(C)C)cc1O | 58.9
88 | Cc1ccc(S(=O)(=O)c2cc3c(=O)n4cccc(C)c4nc3n(Cc3ccco3)c2=N)cc1C | 112

Row | SMILES | inhibition [%]
89 | COc1cccc(-c2nc(-c3ccc4c(c3)-c3ccccc3S4(=O)=O)c(-c3ccccc3)[nH]2)c1OC | -46.7
90 | COc1ccc(CCNC(=O)c2cc3c(=O)n4cccc(C)c4nc3n(Cc3ccncc3)c2=N)cc1 | 180
91 | CCCOc1ccccc1-c1nc2c([nH]1)c(=O)[nH]c(=O)n2C | 171
92 | COC(=O)C1=CN(CCCN2CCCC2=O)C=C(C(=O)OC)C1c1cccs1 | 86.3
93 | c1ccn2cc(-c3ccc4c(c3)OCO4)cc2c1 | 92.9
94 | C=CCNc1nc(NCc2ccccc2)c(C#N)c2c1CN(C)CC2 | 72.9
95 | CCCCn1c(NC(=O)c2ccccc2Cl)c(C#N)c2nc3ccccc3nc21 | 72.9
96 | COc1ccc(C)cc1NC(=O)c1cc2c(=O)n3ccccc3nc2n1C | 70.6
97 | CCSc1n[nH]c2nc3c(c(=O)n12)C1(CCCC1)Cc1ccccc1-3 | 50.8
98 | CCN(CC)c1ccc(-c2nn3c(-c4cccnc4)nnc3s2)cc1 | 91.9
99 | CCN(CC)c1ccc2cc(C(=O)Nc3cccnc3N3CCOCC3)c(=O)oc2c1 | 98.8
100 | Cc1cccn2c(=O)c(/C=C(\C#N)C(=O)NC3CCS(=O)(=O)C3)c(N3CCC(C)CC3)nc12 (configuration not stated) | 71.5
101 | CN1CC2(Cc3c1ccc1ccccc31)C(=O)OC(C)(C)OC2=O | 118
102 | CC(=O)c1cc2c(s1)-c1cc(F)ccc1OC2 | 70.6
103 | CN1Cc2sc(NC(=S)NC(=O)c3ccccc3)c(C#N)c2CC1(C)C | 136
104 | CN(C)c1cccc(C(=O)OCc2cc(=O)oc3cc(O)ccc23)c1 | 128
105 | CN(C)c1ccc(/C=C(\Cl)c2nc3ccccc3s2)cc1 | 60.2
106 | CC1=C(C(=O)OCC2CCCO2)C(c2ccc(C)cc2)C2=C(CC(C)(C)CC2=O)N1 (configuration not stated) | 60.4
107 | CCN1C=C(C(=O)OC)C(c2cccc(C)c2)C(C(=O)OC)=C1 | 72.9
